# In article PMC4336329 (PLoS ONE, 2015):
# Among all 310,000 compounds or so, about 2,200 (0.71%) showed an effect of 50% or more. Effects have a minus sign here. This is one part of the list.
# Molecular target: human ether-à-go-go-related gene (hERG) potassium channel (human, UniProt Q12809)
# Assay: primary screen, population patch clamp on CHO cells stably expressing hERG
# human ether-à-go-go-related gene (hERG) potassium channel, sequence (Q12809 whole entry, looked up): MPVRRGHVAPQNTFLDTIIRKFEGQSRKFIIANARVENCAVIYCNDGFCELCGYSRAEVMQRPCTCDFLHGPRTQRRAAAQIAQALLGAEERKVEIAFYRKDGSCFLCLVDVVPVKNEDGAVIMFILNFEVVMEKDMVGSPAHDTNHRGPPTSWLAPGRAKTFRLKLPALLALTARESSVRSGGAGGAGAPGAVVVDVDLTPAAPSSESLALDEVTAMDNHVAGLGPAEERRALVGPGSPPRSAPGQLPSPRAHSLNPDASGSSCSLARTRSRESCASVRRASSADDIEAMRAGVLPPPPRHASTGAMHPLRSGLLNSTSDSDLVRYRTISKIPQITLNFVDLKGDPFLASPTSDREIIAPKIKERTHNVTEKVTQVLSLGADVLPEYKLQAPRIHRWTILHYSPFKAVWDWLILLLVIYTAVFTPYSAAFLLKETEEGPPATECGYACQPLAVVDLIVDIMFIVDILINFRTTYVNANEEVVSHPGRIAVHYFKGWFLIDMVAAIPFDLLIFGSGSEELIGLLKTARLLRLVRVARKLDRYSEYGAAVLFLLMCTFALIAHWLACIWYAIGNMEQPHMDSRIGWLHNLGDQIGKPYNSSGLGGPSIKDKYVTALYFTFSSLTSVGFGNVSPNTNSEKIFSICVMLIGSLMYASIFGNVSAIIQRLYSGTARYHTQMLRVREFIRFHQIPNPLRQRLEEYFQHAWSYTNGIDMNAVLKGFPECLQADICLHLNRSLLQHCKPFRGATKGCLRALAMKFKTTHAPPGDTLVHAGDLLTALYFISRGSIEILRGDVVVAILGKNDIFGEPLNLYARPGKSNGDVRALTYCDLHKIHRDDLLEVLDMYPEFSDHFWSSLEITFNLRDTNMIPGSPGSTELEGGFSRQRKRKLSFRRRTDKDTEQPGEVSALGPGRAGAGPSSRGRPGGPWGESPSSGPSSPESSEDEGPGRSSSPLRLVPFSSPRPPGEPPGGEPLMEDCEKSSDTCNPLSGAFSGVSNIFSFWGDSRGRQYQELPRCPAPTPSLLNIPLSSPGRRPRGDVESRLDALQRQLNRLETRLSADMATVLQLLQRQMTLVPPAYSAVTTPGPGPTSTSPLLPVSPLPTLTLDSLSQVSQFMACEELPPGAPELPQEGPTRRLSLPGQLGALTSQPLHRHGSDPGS
row,SMILES,"hERG current change (%, negative = inhibition) at 1uM [%]"
1,Cc1nn(-c2ccccc2)c(C)c1/C=N/NC(=O)c1ccc(F)cc1,15.1
2,Cc1ccccc1Cn1cc(NC(=O)c2cc3nc(-c4ccco4)cc(C(F)(F)F)n3n2)cn1,8.28
3,CCCCN(CC)CCCNC(=O)c1ccc(CS(=O)(=O)c2c(Cl)cccc2Cl)o1,-8.53
4,C#CCN(C)Cc1ccccc1.Cl,11.8
5,N=c1c(C(=O)NC2CCCC2)cc2c(=O)n3ccccc3nc2n1C1CCCCC1,-86.9
6,CCNC(=S)N(Cc1cc2cc(C)cc(C)c2[nH]c1=O)C1CCCC1,0.619
7,CNc1cc(C)nc(N2CCOCC2)n1,17
8,CCn1ccc(C(=O)Nc2ccc(N(C)C(C)=O)cc2)n1,17.1
9,Nc1cc(Cl)c2nonc2c1[N+](=O)[O-],-1.92
10,O=C(NCc1ccccc1Cl)C1=CC=CN2CCS(=O)(=O)N=C12,7.43
11,CCc1ccc2oc(=O)cc(CN3CCC(C)CC3)c2c1,8.5
12,CC1(C)Cc2c(sc(NC(=O)COc3ccc(Cl)cc3)c2C(N)=O)C(C)(C)N1,8.12
13,CCOC(=O)N/N=C(\CCC(=O)O)c1cccs1,13.1
14,CCc1nnc(NC(=O)CSc2nnc(CNc3ccc(OC)cc3)n2C)s1,9.07
15,CCC(=O)NC1(C(F)(F)F)C(=O)NC(C)=C1C#N (stereo not shown),3.51
16,COC(=O)c1c(NC(=O)/C=C/c2ccc3c(c2)OCO3)sc(C)c1C,1.97
17,COc1cc(/C=C2/C(=N)N3C=CSC3=NC2=O)ccc1OCCCOc1c(C)cccc1C,11
18,CC(=O)c1c(C)[nH]c(C(=O)OCC(=O)Nc2cc(S(=O)(=O)N3CCCCC3)ccc2C)c1C,10.8
19,CC(=O)c1c(Cl)nc2cccc3c2c1-c1ccccc1C3=O,11
20,Cc1cc(-c2ccc(C(C)C)c(S(=O)(=O)N3CC(=O)Nc4ccccc43)c2)on1,15.5
21,Cc1cc(N2CCN(S(=O)(=O)Cc3ccccc3)CC2)n2ncnc2n1,-11.4
22,CCN(CC)CCCN=Cc1c(O)n(-c2c(C)cccc2C)c(=O)c2ccccc12,-3.37

row,SMILES,"hERG current change (%, negative = inhibition) at 1uM [%]"
1,CCC(C)[C@H](NC(=O)N1CC(=O)Nc2ccccc21)C(=O)N[C@H](C(=O)O)c1ccccc1 (stereo partly shown),10.1
2,Cc1cccc(/C(N)=N/OC(=O)c2ccco2)c1,-1.55
3,N#CCCN(C(=O)CN1CCN(S(=O)(=O)c2ccc3c(c2)OCCO3)CC1)c1ccc(F)cc1,2.29
4,COc1ccc(OCC(=O)NCC(c2cccs2)N2CCOCC2)cc1 (stereo not shown),8.74
5,CNc1cnn(-c2ccc(C)cc2)c(=O)c1Cl,16
6,O=C(NC(NC(=S)Nc1ccccc1C(=O)O)C(Cl)(Cl)Cl)c1ccco1 (stereo not shown),5.62
7,CCC(C)C1Nc2ccc(C(=O)NCCc3ccc(OC)c(OC)c3)cc2NC1=O (stereo not shown),11
8,CCn1c(COc2ccccc2C)nnc1SCC(=O)NC1CCCC1,18.5
9,Cc1csc(NC(=O)c2ccc(COc3ccccc3)o2)n1,3.65
10,O=C1CC(c2ccccc2)CC(O)=C1C=Nc1ccccc1Cl (stereo not shown),11.1
11,Cc1ccc(C)c(NC(=S)N2CCC(NC(=O)c3ccco3)CC2)c1,10.7
12,CC(=O)Nc1ccc(S(=O)(=O)Nc2ccc3[nH]c(=O)[nH]c3c2)cc1,22.1
13,CCC1=C(OC(=O)N(CC)CC)N2C(=O)OC(=NCC3CC3)[C@]2(C)[C@H]2C1=CC[C@H]1C(=O)NC(=O)[C@H]12,10.4
14,O=C(NCc1ccco1)C(=O)NCC1OCCN1S(=O)(=O)c1ccc(Br)cc1 (stereo not shown),0.401
15,CCOC(=O)C1=C(COC(=O)c2cc(S(=O)(=O)N(C)C)ccc2C)NC(=O)NC1C (stereo not shown),1.46
16,COc1ccc(CNC(=O)C2CCCN(S(=O)(=O)c3cccc4nsnc34)C2)cc1 (stereo not shown),6.4
17,COc1ccc(C(C(=O)NC2CCCC2)N(C(=O)c2snc(C(N)=O)c2N)c2cc(C)ccc2OC)cc1OC (stereo not shown),5.27
18,O=C1CC(N2CCC(c3nc4ccccc4[nH]3)CC2)C(=O)N1c1ccccc1F (stereo not shown),3.89
19,Cc1cc(C)c2c(n1)SCC(=O)N2CC(=O)Nc1ccc(Br)c(C)c1,3.6
20,Cc1nc(CC(=O)Nc2nc(-c3ccccc3)cs2)cs1,0.165
21,CCCCCC/C(C=O)=C\c1ccccc1,22.1
22,COc1ccc(C2CC(c3cccs3)=NN2S(=O)(=O)c2ccc(C)cc2)cc1 (stereo not shown),9.62

row,SMILES,"hERG current change (%, negative = inhibition) at 1uM [%]"
1,CCCCn1c2c(c(=N)c3ccccc31)CCC2.I,-16.6
2,Nc1[nH]c(=S)[nH]c(=O)c1-c1ccccc1,11.2
3,CC(C)(C)c1ccc(C(=O)NCCCNC(=O)c2ccco2)cc1,7.71
4,O=C1CCC(C(=O)N2CCC(O)CC2)CN1CCc1ccc(Cl)cc1 (stereo not shown),7.44
5,CN(C)c1nccc(NCc2ccccc2)c1C#N,4.34
6,Cc1ccc(C)c(OCCC(=O)NNC(=O)c2cc(C)oc2C)c1,0.801
7,O=C(N/N=C(\c1ccccc1)c1cccnc1)c1cccc(F)c1,2.06
8,COc1ccc(CC(=O)Nc2cc(C)c3c(=O)oc4ccccc4c3n2)cc1,6.05
9,Cc1ccc(S(=O)(=O)N2CCC(C(=O)N[C@H](C(=O)N3CCN(C)CC3)C(C)C)CC2)cc1,17.1
10,CCN(CC)N=Nc1ccc(S(=O)(=O)N2CCSC2C(=O)[O-])cc1.[K+] (stereo not shown),19.9
11,COc1cc(NC(=O)N2CCOCC2)cc(OC)c1,7.66
12,Cc1ccc(NC(=O)Nc2c(Cl)cccc2Cl)cn1,7.42
13,COc1ccc(S(=O)(=O)NC(CC(=O)NCCc2ccc(OC)c(OC)c2)c2ccco2)cc1 (stereo not shown),2.5
14,C=CCn1c(SCC(=O)Nc2sccc2C(N)=O)nc2sc(CC)cc2c1=O,3.1
15,Cc1nn(C)cc1/C=C/C(=O)c1cccs1,8.48
16,Cc1nc(-c2ccccc2)sc1C1(C)CC(c2cccc([N+](=O)[O-])c2)=NO1 (stereo not shown),14.9
17,COc1ccc(NC(=O)[C@H](NC(=O)[C@@H]2Cc3ccccc3CN2)c2ccccc2)cc1,5.49
18,CCOc1ccc(NC(=O)CCc2nnc3ccc(N4CCC5(CC4)OCCO5)nn23)cc1,15.8
19,Cc1nc(SCC(=O)NC2CCS(=O)(=O)C2)c2c(C)c(C)sc2n1 (stereo not shown),12.3
20,O=C(O)c1nn(CC(=O)N2CCN(c3ncc(C(F)(F)F)cc3Cl)CC2)c(=O)c2ccccc12,8.31
21,CCOC(=O)Cc1csc(SCC(=O)Nc2cc(C)ccc2OC)n1,22.5
22,Cc1[nH]c2ccccc2c1/C=N/Nc1nncn1N.Cl,6.39

row,SMILES,"hERG current change (%, negative = inhibition) at 1uM [%]"
1,Cc1ccccc1C(=O)NCCNc1ccc([N+](=O)[O-])cc1,7.46
2,O=C(OCc1nnc(-c2ccccc2)o1)c1ccc2ccccc2n1,16.2
3,O=C(Nc1ccc(Cl)c(C(F)(F)F)c1)[C@@H]1CC=C[C@@H]2CCN(C3CC3)C(=O)[C@@H]21,9.85
4,COc1cc(S(=O)(=O)Nc2ccccc2)ccc1N=Cc1c(C)[nH]n(-c2ccc(C)cc2)c1=O,4.83
5,COc1ccc(S(=O)(=O)N2CCOC2CNC(=O)C(=O)NCc2ccco2)cc1 (stereo not shown),6.84
6,Cc1cc(C)cc(NC(=S)Nc2cccc3ccccc23)c1,-0.413
7,CCOC(=O)c1c(C)c(C(=O)Nc2ccc(N(C)C)cc2)c(C)n1CC,1.38
8,CC1(C)CC2CC(C)(CN2C(=O)c2cc(-c3ccccc3O)on2)C1 (stereo not shown),9.29
9,NC1=NC(=O)CC(C(=O)NCc2ccccc2)S1 (stereo not shown),18.5
10,CCOC(=O)NCC(C)(C)CNC(=O)OCC,10.6
11,C[C@@H]1C2C[C@@]34COC(=O)C3=CC=C[C@H]4[C@@]13C[C@H](c1ccoc1)O[C@@H]3O2,-10.3
12,Cc1cc(C)n(-c2ccc(C(=O)NC3CCCCC3)cc2)n1,7.14
13,Cn1cc(C(=O)OCC2CCN(CCNS(C)(=O)=O)CC2)c2ccccc21,-0.138
14,COc1cc(C2NC(=O)CS2)cc(OC)c1OC (stereo not shown),5.84
15,C=CCn1c(C(C)NC(=O)c2cccs2)n[nH]c1=S (stereo not shown),11.2
16,COC(=O)c1nn(-c2ccc(OC)cc2)c(=O)cc1Oc1ccccc1,-4.17
17,Clc1ccc2nc(-c3ccccc3)cn2c1,12.4
18,CC1(C)Cc2c(C#N)c(NCCN3CCOCC3)nc(-c3ccco3)c2CO1,5.41
19,Cc1cc(=O)n2nc(N3CCCC(C(=O)N4CCN(C)CC4)C3)sc2n1 (stereo not shown),-1.41
20,CCn1c(CNc2ccc(OC)cc2)nnc1SCC(=O)Nc1ccc(F)cc1,-8.41
21,O=C(NCc1ccccn1)Nc1cccc(Cl)c1Cl,14.3
22,COc1ccc(OCC(=O)NC2CCCc3ccccc32)cc1 (stereo not shown),11.3
